Experimental data from PubChem BioAssay AID485344 (National Center for Advancing Translational Sciences (NCATS), 2010).
Screen size: about 340,000 compounds; about 6,900 (2%) were called active. Rule as the data show it: active = inhibition above about 30%; inactive = below that, where a call was filed. Only a part is listed here, and it is no random draw. Where no call is shown, the source filed none.

Each compound was assayed against D(2) dopamine receptor (Homo sapiens) (UniProt P14416) (assay: HTS Assay for Allosteric Antagonists of the Human D2 Dopamine Receptor: Primary Screen for Antagonists). Details: HEK293 TREx D2 cells, calcium flux, dopamine EC80; at 10 µM; stronger effect = higher value.
Chain of UniProt P14416 (P14416 whole entry, looked up): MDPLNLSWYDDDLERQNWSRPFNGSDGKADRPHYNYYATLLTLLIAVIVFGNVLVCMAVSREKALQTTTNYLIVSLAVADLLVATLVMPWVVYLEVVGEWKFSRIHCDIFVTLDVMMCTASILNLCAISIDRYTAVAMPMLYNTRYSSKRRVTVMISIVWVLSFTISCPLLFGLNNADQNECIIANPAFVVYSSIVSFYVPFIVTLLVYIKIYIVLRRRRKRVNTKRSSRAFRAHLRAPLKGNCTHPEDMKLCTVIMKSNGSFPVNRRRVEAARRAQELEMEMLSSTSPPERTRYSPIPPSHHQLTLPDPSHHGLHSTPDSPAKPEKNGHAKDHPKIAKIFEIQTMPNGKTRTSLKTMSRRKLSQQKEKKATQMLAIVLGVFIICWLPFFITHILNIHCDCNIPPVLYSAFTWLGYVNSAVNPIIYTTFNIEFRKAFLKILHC
Summary of the method: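 Read-out: kinetic calcium fluorescence (1 cycle/s) in inducible HEK293 T-REx D2 cells after an EC80 dopamine addition that followed 180 s compound preincubation. Loss of the dopamine response indicates antagonism.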
Also: 0% is about no effect.

| Compound | inhibition |
| --- | --- |
| COc1ccc(CCNC(=O)c2cnn(-c3cccc(C)c3)c2C2CCN(C(=O)OC(C)(C)C)CC2)cc1OC | 9.76% |
| COc1cccc2c1ncc1c(-c3ccc(C)cc3)nn(-c3ccc(F)cc3)c12 | -7.79% |
| Cc1cccc(-c2nnn3c2nc(NCc2ccc4c(c2)OCO4)c2ccccc23)c1 | -15.6% |
| Cc1ccc(S(=O)(=O)Nc2cc3c(cc2NCc2ccccc2)n(C)c(=O)n3C)cc1 | 14.2% |
| O=C(Cn1c(=O)nc(-c2ccccc2)c2cc(Cl)ccc21)N1CCN(c2ccccc2F)CC1 | 9.37% |
| Cc1cc(C)nc(N(C#N)Cc2ccccc2C)n1 | active: 49.8% |
| CCOC(=O)c1sc2ccccc2c1S(=O)(=O)N1CCN(c2cccc(C)c2)C(C)C1 (configuration not stated) | 17.9% |
| COc1ccc2c(c1)CC(C(=O)NCCCN1CCN(c3cccc(Cl)c3)CC1)CO2 (configuration not stated) | 1.41% |
| Cc1ccc(/C=C\c2nccc3c2[nH]c2ccccc23)cc1 | active: 44.3% |
| Cc1ccc(CC(=O)NCc2ccc(Cl)cc2)cc1 | active: 52.6% |
| CSc1ncc(C(=O)N2CCN(c3cccc(Cl)c3)CC2)c(C)n1 | -14.5% |
| O=C(CCCn1c(=O)c2cccn2c2cccnc21)NCc1ccccc1Br | 8.88% |
| O=C(CC1C(=O)N(c2ccccc2)C(=O)N1CCc1cccs1)Nc1ccc(F)cc1 (configuration not stated) | -13.4% |
| CCOc1ccc(CCNC(=O)Cn2nnc(-c3ccccc3Cl)n2)cc1OCC | -0.151% |
| Cc1ccc(CNc2nc(-c3ccco3)nn2S(=O)(=O)c2ccc3ccccc3c2)cc1 | -4.89% |
| O=C(CSc1ncc(-c2ccccc2)[nH]1)Nc1ccc(Cl)cc1 | 21.4% |
| Cc1cccc(-n2ncc(C(=O)N3CCN(c4ccc(C)cc4C)CC3)c2C2CCN(C(=O)OC(C)(C)C)CC2)c1 | 4.18% |
| Cc1cc(N2CCN(C)CC2)nc2ccc(NC(=O)Nc3cccc(Cl)c3)cc12 | -15.6% |
| Cc1cn(C)c(CC(=O)NCc2ccccc2)c1C(=O)O | -3.41% |
| Cc1ccsc1CN(C(=O)c1oc2ccc(Br)cc2c1C)C1CCS(=O)(=O)C1 (configuration not stated) | 4.04% |
| CCN1c2ccccc2-c2nc(SCC(=O)NCc3ccc(Cl)cc3)ncc2S1(=O)=O | 7.9% |
| CCOc1ccc(C2c3c(oc4ccc(C)cc4c3=O)C(=O)N2CCCN2CCOCC2)cc1 (configuration not stated) | -16.9% |
| CCOc1ccc(Nc2c(S(=O)(=O)c3ccc(Cl)cc3)cnc3ccc(OCC)cc23)cc1 | -0.204% |
| Cc1ccccc1CNC(=O)c1oc2c(c1C)-c1[nH]ncc1CC2 | -16.7% |
| Cc1ccc2nc(Cl)c3cc(C(=O)N4CCCCC4C)sc3c2c1 (configuration not stated) | -4.63% |
| Cc1ccccc1Nc1nn2c(=O)c3ccc(C(=O)NCCc4ccc(Cl)cc4)cc3nc2s1 | -0.755% |
| COc1ccc(Cl)cc1NC(=O)CN1C(=O)C(C)(C)c2cc(S(=O)(=O)N3CCCCC3)ccc21 | 4.22% |
